Experimental data from the supplement of paper PMC3334620.
The full ranking holds about 33,000 sequences; the median of “E-score (-0.5 to 0.5)” is about -0.053, and the highest 2% start at about 0.37. The list shows a part of the results.

These sequences were tested against Hap1 (UniProt P0CE41) (assay: PBM E-score (8-mer binding enrichment) (E-score (-0.5 to 0.5)); higher = stronger / more preferred TF binding; most listed sequences are background and not binding sites). Details: protein concentration: 200 nM; construct: GST-DNA-binding domain.
Procedure: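 Universal 'all 10-mer' protein binding microarrays (Agilent AMADID 015681) probed with GST-tagged S. cerevisiae TFs (full-length or DBD) made by in vitro transcription/translation (PURExpress), about 100-200 nM. Bound TF was detected with fluorescent anti-GST. Each ungapped 8-mer (which stands for itself and its reverse complement) is scored by the PBM enrichment score (E-score), a modified Wilcoxon-Mann-Whitney statistic from -0.5 to +0.5, computed with the Universal PBM Analysis Suite. Scale: above 0.35 generally sequence-specific binding.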

Chain of UniProt P0CE41 (P0CE41 whole entry, the tested form may be a part): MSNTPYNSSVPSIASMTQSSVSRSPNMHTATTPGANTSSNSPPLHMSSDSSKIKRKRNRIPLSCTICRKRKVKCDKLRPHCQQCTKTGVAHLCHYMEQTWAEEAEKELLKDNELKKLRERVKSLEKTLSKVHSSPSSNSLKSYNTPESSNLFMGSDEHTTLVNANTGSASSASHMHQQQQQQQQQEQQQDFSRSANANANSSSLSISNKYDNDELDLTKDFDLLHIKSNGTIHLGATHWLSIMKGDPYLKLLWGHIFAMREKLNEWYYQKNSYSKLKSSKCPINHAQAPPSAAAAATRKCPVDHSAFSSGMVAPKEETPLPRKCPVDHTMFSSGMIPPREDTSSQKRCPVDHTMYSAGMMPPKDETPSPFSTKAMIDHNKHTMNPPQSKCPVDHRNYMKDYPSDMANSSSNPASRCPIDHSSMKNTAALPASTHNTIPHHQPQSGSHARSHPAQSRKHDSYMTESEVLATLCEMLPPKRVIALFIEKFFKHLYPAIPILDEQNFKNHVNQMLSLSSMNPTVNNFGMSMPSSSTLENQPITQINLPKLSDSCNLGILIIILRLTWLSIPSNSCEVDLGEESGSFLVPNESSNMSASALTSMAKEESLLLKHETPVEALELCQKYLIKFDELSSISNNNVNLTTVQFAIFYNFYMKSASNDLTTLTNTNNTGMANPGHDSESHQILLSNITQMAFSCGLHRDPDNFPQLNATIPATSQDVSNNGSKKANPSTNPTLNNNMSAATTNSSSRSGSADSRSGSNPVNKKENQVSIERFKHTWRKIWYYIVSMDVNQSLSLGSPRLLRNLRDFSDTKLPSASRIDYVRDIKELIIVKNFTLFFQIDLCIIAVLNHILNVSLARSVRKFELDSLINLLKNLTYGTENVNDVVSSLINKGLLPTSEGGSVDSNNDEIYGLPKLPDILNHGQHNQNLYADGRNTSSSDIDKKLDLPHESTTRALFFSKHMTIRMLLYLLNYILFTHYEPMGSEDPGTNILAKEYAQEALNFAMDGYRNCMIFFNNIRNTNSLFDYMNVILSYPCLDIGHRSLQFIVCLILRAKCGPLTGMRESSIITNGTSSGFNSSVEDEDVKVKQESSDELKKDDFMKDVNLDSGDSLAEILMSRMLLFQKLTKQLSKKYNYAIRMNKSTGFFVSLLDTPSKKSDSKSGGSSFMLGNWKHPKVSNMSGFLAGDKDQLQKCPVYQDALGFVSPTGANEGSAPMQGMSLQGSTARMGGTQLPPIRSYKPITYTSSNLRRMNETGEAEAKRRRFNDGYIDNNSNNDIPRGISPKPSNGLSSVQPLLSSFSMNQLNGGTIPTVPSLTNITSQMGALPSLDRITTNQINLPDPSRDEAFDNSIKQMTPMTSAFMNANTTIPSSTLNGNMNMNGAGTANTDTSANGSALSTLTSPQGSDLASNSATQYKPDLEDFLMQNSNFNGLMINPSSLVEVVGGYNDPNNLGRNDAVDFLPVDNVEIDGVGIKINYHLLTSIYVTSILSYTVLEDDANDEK

Sequence	PBM E-score
CGAGACAG	0.0426
GAAAGTTA	0.0553
CATGAGCG	-0.0122
GCCCTAGA	-0.296
GACCTATC	0.116
AATAAACT	0.194
AAGCACGC	-0.113
TCCTACAA	-0.0619
AGTCGCAG	-0.0678
ACCAGGCT	-0.306
GGTTGGAA	0.0878
TGCCCACA	-0.249
GCCCCGTA	0.0466
CAACCCAA	-0.256
GGCCACTA	-0.0966
AAACTCAG	-0.0738
CGCCCGAA	0.294
CCACCATC	0.0209
ATTCCATA	0.0177
TGGGCTAA	-0.108
CCTCGGCG	0.37
AACGGTCG	0.23
AAGTCGAC	-0.054
AGGAGCCC	-0.049
AAAACACA	0.00248

Sequence	PBM E-score
AAAAAAAG	-0.0704
CCTCAGTC	-0.111
GATGAAAA	-0.0269
CTTCAACA	-0.222
AAATGCTC	0.0505
CTTCTTAA	0.00735
AGCAATTC	-0.0245
AGGGCGCG	-0.0446
ACGGGGTG	0.077
TGAATTAA	-0.0149
CCTTCACC	-0.142
AGATTGGG	-0.0446
AAAACGCT	-0.158
AGGAATTC	-0.27
ACCGTCCA	0.0238
CAACTATA	-0.13
ATGCAGCA	-0.0867
CAACGGTG	0.0704
CACCGCGA	0.00564
ACGTCAAT	-0.206
AAAATTTC	0.0653
ACTAGGTC	-0.0578
GATCGCCC	-0.0362
CGATTTAC	0.149
AATGTTTA	-0.148

Sequence	PBM E-score
ATTACCCA	-0.114
TCTTATCA	-0.0253
CGACGGCC	0.245
ACGAGCCG	0.0797
ACAAGCTA	-0.272
ACAGTCAT	-0.143
AACAGTCA	-0.16
ACCGCTCC	0.142
CGGTAACC	0.27
AGTGGCAC	-0.183
GTTCAAAC	0.0658
ATGAAGAG	-0.107
ATGACTCA	-0.211
AAGTGAGG	-0.269
CTTCGAAA	-0.279
CAAGAATA	0.00826
ATCTACGC	0.148
TGGTAGAA	-0.258
TAAAAGAA	-0.225
CATACTGC	-0.186
CCCTACCG	0.157
CAGGCGGG	-0.191
CTTCGATC	-0.0454
TGCACACA	-0.238
CACAACGG	0.11

Sequence	PBM E-score
CATGGCCG	0.254
ATGGAAGG	-0.0671
CCTTGAGC	-0.149
GATCCGTA	0.225
GAACCTGC	-0.127
AAGCCGTC	0.27
ACTGTCAT	-0.183
AGATTTAC	-0.103
AAACAGGC	-0.148
GGAGAGAA	0.0186
AAGAACAA	0.0116
ATGGTACC	-0.0818
CCTGCCCG	0.159
AGAATGTG	-0.244
GTGAGATA	0.0588
AGACTAAA	0.0455
CACGCCAG	-0.075
ATCCGAGC	0.356
CCACGAAG	-0.212
CCGTGCCG	0.168
CTTTACCA	-0.248
CGTACAAA	-0.107
ATTCCGTG	0.294
ACTATCTA	-0.0129
CAGAAGAG	-0.357

Sequence	PBM E-score
CCGTCGCG	0.162
AAATTTGT	-0.0213
AGGAAGAT	-0.0291
GAGAAGAC	-0.0696
GGTGTTTA	0.293
CCGAGAGG	0.153
GTTCGGGA	0.204
CAGCCTCG	-0.0531
GAGCAAGA	-0.0171
CAACGATA	0.116
ATGCCAAC	-0.106
AAATCTAG	-0.13
GTGTTAGA	-0.0664
GCGACTGA	-0.184
AGGAGTCG	-0.214
AGATCCGC	0.263
CAGCACAG	-0.217
GCTGGCAA	-0.0328
ATTAGTGC	0.0555
TCAGGCGA	-0.0547
CACAGCGG	-0.0883
AATAGGGA	-0.146
GAACAATA	0.0036
CTGCGCAG	-0.0918
ATCTTCTC	0.129

Sequence	PBM E-score
CCTGGATC	-0.133
CTCACGCA	-0.0227
CCATGCCC	0.0965
ACCCGCAA	0.143
ACTTGTTA	-0.112
CGAACCTA	0.0968
ATTATAAC	0.209
CTGGGCCA	-0.139
GTGGGTAA	-0.0375
ACTGAAGT	-0.167
GACAGGCA	-0.16
ATTCGATC	0.0801
AAAGTATT	-0.211
CGGTGTAA	0.114
CACGCGCC	0.123
GGTATAGA	-0.0194
GAGCAGGC	-0.161
AGCCCCGA	0.333
ATCATAAG	-0.106
TAGGCCAA	-0.0647
CGCTCAAC	-0.104
ATAATAAT	-0.084
ACATTCGA	-0.0575
ACCCCCGC	0.217
AGCAGGAT	-0.0378

Sequence	PBM E-score
GAACAGAC	-0.0139
GTTGGGAA	-0.0676
GGGATATA	0.21
AGCCGGGC	0.173
CGTAGGAG	0.0115
ACTGGTCC	0.173
ATAACTAA	-0.0341
CACGTCAG	-0.2
ATGTTTAC	-0.03
AAACCTTG	-0.278
TCCATCAA	0.0213
GGAGGTGA	0.031
AGTCAACC	-0.0124
GATGCTTA	-0.0957
GGCTGCAC	0.00187
GGCATTAA	0.221
AAGTATCT	-0.0978
GCGCAGAA	-0.0987
ATCCGGAG	0.424
CGCCTGTA	0.0724
AATAAATG	0.0315
AAACAATG	-0.164
GTGGGCTA	-0.262
AGAAGTCG	-0.0961
CATGTCTA	-0.231

Sequence	PBM E-score
ACATGCAT	-0.17
GTGGATGA	-0.266
CCCACCGG	0.374
AGAAATAA	0.0188
AATGGTGA	-0.253
GCCATAGA	-0.189
CGGCGAAA	0.32
AATCTTAA	-0.153
AGACTTAA	-0.18
CGGGCTGA	0.196
AGCACGGC	0.14
ACAGGAGT	-0.116
GAGTCCCC	-0.181
ATCCAATC	-0.0654
ACTTAGAA	-0.237
TACGCTGA	-0.0321
GTCAGAGA	-0.155
TTATGGAA	0.0178
ATTGACGA	-0.132
ATGCAAAC	-0.165
CCCATAAA	-0.0271
CAGCCTGA	-0.142
ACTTTTAC	0.13
CTCGCCCA	-0.0894
TAAAGCAA	-0.0198

Sequence	PBM E-score
CATTGCAA	-0.133
AATGCCGT	0.334
AGGACGAA	0.128
CATGAGCC	-0.25
ATTGGGGA	-0.0998
AATCACTA	-0.018
CGCAGTAG	-0.0792
AGCCTTCA	-0.144
CTAGTGAC	-0.106
TGCAGCCA	-0.0851
AATTGCCA	-0.0725
CCATAGCG	0.025
ATTGTCCG	0.396
AACACCTC	-0.171
CGCATCGA	0.0796
AGCCAGCT	-0.172
TATCACCA	0.021
GGTACAAA	-0.0347
CTCGATGA	-0.0974
